# Among all 43,000 compounds or so, about 200 (0.47%) were called active. Another 12% or so got no clear call; they are omitted. The call rests on the fitted dose curve; in most records, active means well fitted cell-killing curve with a large enough effect; inconclusive means small, poorly fitted or top-dose-only effect, or effect the other way; inactive means flat fitted curve, though single readings scatter. This is one part of the list.
# Assay: Cell viability qHTS assay in S16 Pmp22-F2sN cells; further: nearly all actives have a fitted effect of over 65% in size
# Details: S16 Pmp22-F2sN Schwann cells (luciferase reporters placed in the Pmp22 gene) viability, CellTiter-Glo, 24 h; series mostly up to 57.5 µM; activity change, negative = cytotoxicity: at the top concentration
# Summary of the method: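 Seed 500-1,000 S16 Pmp22-F2sN cells per well in phenol-red-free DMEM with 10% heat-inactivated FBS; pin-add 23 nL compound; incubate 24 h at 37C; add CellTiter-Glo, wait 15 min protected from light; read luminescence.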
# On the % scale 0 is the no-effect control and ±100 the full control effect.
row,SMILES,"activity change, negative = cytotoxicity"
1,COc1cc(/C=C(\C#N)c2nc3ccccc3c(=O)[nH]2)cc(OC)c1OC,inactive: 8.84%
2,Cc1ccc(-c2nc3ccccc3n3c(-c4ccccc4)c4c(=O)n(C)c(=O)n(C)c4c23)cc1,inactive: -0.928%
3,CCn1ccc2cc(S(=O)(=O)N3CCCN(C(=O)NCC(C)C)CC3)ccc21,inactive: 17.1%
4,COc1cc(OC)c(NC(=O)c2cc(CN3CCOCC3)on2)cc1Cl,inactive: 1.78%
5,COCCNC(=O)CCCn1c(=O)c2cc(OC)c(OC)cc2n(CC(=O)Nc2ccc(F)cc2)c1=O,inactive: -3.5%
6,O=C(COc1ccccc1Cl)Nc1ccc2oc(-c3ccccc3F)nc2c1,inactive: 7.7%
7,O=C(Nc1ccc(F)cc1F)c1cc(-c2ccccc2O)no1,inactive: -0.201%
8,Cc1ccc(NC(=O)Cn2c(=O)n(CCCCC(=O)NCCc3ccccc3)c(=O)c3ccccc32)c(C)c1,inactive: 8.7%
9,Cc1nn2c(=O)cc(COC(=O)c3ccc(NC(=O)C4CCCCC4)cc3)nc2s1,inactive: -20%
10,COc1cc(NC(=O)Cn2nc(C(F)(F)F)c3c2CCCC3)c(OC)cc1Cl,inactive: -0.739%
11,CCCCOC(=O)c1ccc(NC(=O)c2cc3c(=O)n4cccc(C)c4nc3n2C)cc1,inactive: 12.4%
12,CCOc1ccc(CNC(=O)c2ccc(-c3nc(CS(=O)(=O)c4ccccc4)c(C)o3)cc2)cc1,inactive: -18.4%
13,CCOC(=O)C1CCN(CCC(=O)Nc2ccc(Br)c(C)c2)CC1,inactive: 11.6%
14,O=C(CSc1nc(=O)[nH]c2c1CCCC2)Nc1ccccc1C(F)(F)F,inactive: 1.82%
15,Cc1nn2c(=O)cc(COC(=O)c3cccc(NC(=O)c4cccs4)c3)nc2s1,inactive: 2.54%
16,Cc1cccc(N(C)S(=O)(=O)c2cc3c(cc2Cl)NC(=O)CO3)c1,inactive: -1.82%
17,CCOc1ccc(NS(=O)(=O)c2ccc3[nH]c4c(c3c2)CCCC4)cc1,inactive: -16.4%
18,CCCSc1ncc(Cl)c(C(=O)Nc2sc3c(c2C(=O)NCCOC)CCCC3)n1,inactive: 1.52%
19,Cc1c(Cl)cccc1NC(=O)CSc1nc(=O)n(Cc2ccccn2)c2c1CCC2,inactive: -10.4%
20,COc1ccc(-c2cn3nc(N4CCC(C(=O)Nc5cccc(C)c5C)CC4)sc3n2)cc1,inactive: 1.3%
21,COc1ccc(N(CC(=O)N2CCN(c3cccc(C)c3C)CC2)S(=O)(=O)c2c(C)noc2C)cc1,inactive: 2.64%

row,SMILES,"activity change, negative = cytotoxicity"
1,Cc1ccc(C(C)C)c(OCC(=O)N2CCC(c3nc4ccccc4o3)CC2)c1,inactive: -11.3%
2,COc1ccc(C(=O)N(Cc2ccc(C(C)C)cc2)C2CCS(=O)(=O)C2)cc1 (stereo unspecified),inactive: -11.4%
3,Cc1nc2nc(SCC(=O)NCCc3ccccc3)nn2c(C)c1Cc1c(F)cccc1Cl,inactive: 25.2%
4,Cc1ccccc1CNS(=O)(=O)c1csc(C(N)=O)c1,inactive: 13.9%
5,Cc1nn(-c2ccc(N3CCOCC3)nn2)c(C)c1CCC(=O)NCc1ccc(OC(C)C)cc1,inactive: -0.448%
6,Cc1c(C2=CCN(S(=O)(=O)c3ccc(CC(C)C)cc3)CC2)c2ccccc2n1CC(=O)N1CCCC1,inactive: 2.61%
7,CCn1c(SCCOc2ccccc2F)nc2ccccc21,inactive: 3.49%
8,Cn1c(=O)nc2n(-c3ccc(Cl)c(Cl)c3)c3cc(Cl)ccc3cc-2c1=O,inactive: -1.15%
9,O=C(Nc1c(C(=O)Nc2ccc(F)cc2)oc2ccccc12)c1ccccc1F,inactive: 10.1%
10,Cc1ccc(C)c(NC(=O)CN2C(=O)COc3ccc(Cl)cc32)c1,inactive: 0.0443%
11,COc1ccccc1CNC(=O)C1CCCN(c2nnc(-n3c(C)ccc3C)s2)C1 (stereo unspecified),inactive: 0.627%
12,CC1=C(C(=O)OCC2CCCCC2)C(c2ccccc2F)CC(=O)N1 (stereo unspecified),inactive: 29.3%
13,CCOc1ccc(NC(=O)NCCc2c(C)nn(C)c2C)cc1,inactive: -10.3%
14,CC1CCc2nn(CC(=O)Nc3ccccc3Cl)cc2C1 (stereo unspecified),inactive: 0.705%
15,CCc1ccc(-c2nc3c(c(SCc4ccccc4F)n2)Cc2c(CO)cnc(C)c2O3)cc1,inactive: 6.44%
16,Cc1cccc(N2CCN(C(=O)CN3CCSc4ccccc43)CC2C)c1 (stereo unspecified),inactive: 2.2%
17,COc1ccc(NC(=O)C(=O)NCC(c2cccnc2)N2CCc3ccccc32)cc1OC (stereo unspecified),inactive: -24.8%
18,CN(Cc1ccccc1)S(=O)(=O)c1ccc(-c2cnc(C3CC3)o2)cc1,inactive: 5.69%
19,Cc1ccc(NC(=O)C(C)Sc2nc(=O)cc(N)n2-c2cccc(C)c2)cc1 (stereo unspecified),inactive: 1.62%
20,COc1cccc(S(=O)(=O)N2CCN(Cc3ccc4c(c3)OCO4)CC2)c1,inactive: 8.65%
21,O=c1c2oc3ccccc3c2n(Cc2ccccc2Cl)c(=O)n1Cc1ccco1,inactive: 3.47%

row,SMILES,"activity change, negative = cytotoxicity"
1,COc1ccc(CN(Cc2ccco2)c2cnc(S(C)(=O)=O)nc2C(=O)Nc2ccc(C)c(Cl)c2)cc1,inactive: 6.99%
2,CC(C)Oc1ccc(C(=O)N2CCN(CCc3ccccn3)CC2)cc1,inactive: 6.84%
3,Cc1ccc(NC(=O)c2cnn3c(C(F)F)cc(-c4ccccc4)nc23)cc1F,inactive: 20.1%
4,CCCn1c(SCc2nc(-c3ccc(OC)c(OC)c3)no2)nnc1-c1ccccc1,inactive: -23.6%
5,CCOc1ccc(-c2nc(Cn3c(=O)cc(-c4ccccc4)c4c(C)nn(C)c43)c(C)o2)cc1,inactive: 5.69%
6,CCOc1ccc(NC(=O)CN(c2ccc(CC)cc2)S(=O)(=O)c2c(C)noc2C)cc1,inactive: -1.75%
7,Cc1ccc(CNC(=O)C2CCN(S(=O)(=O)c3c(C)noc3/C=C/c3cccs3)CC2)cc1,inactive: 13.3%
8,Cc1sc2ncn(CC(=O)N3CCN(c4ccc(F)cc4)CC3)c(=O)c2c1S(=O)(=O)N1CCC(C)CC1,inactive: -0.68%
9,Cc1ccc(CNC(=O)Cn2c(=O)cc(C(F)(F)F)c3c(C)nn(C)c32)cc1,inactive: 4.43%
10,COC(=O)C1=C(c2ccccc2)c2ccccc2S(=O)(=O)N1CC(=O)Nc1ccc(F)c(F)c1,inactive: -0.494%
11,CC(C)Oc1ccc(CNC(=O)c2ccc(CN3CC(=O)N4CCCCC4C3=O)cc2)cc1 (stereo unspecified),inactive: 0.577%
12,Oc1c(C(c2ccc(Cl)cc2Cl)N2CCN(c3ccccc3)CC2)sc2nc(-c3ccco3)nn12 (stereo unspecified),inactive: 9.65%
13,O=C(NCc1cccc(Cl)c1)c1ccc(NC(=O)N2CC3CCCN3c3ccccc32)cc1 (stereo unspecified),inactive: -9.82%
14,CSc1ncc(C(=O)NCc2cccc(F)c2)c(-c2ccccc2)n1,inactive: 11.8%
15,O=C(CCS(=O)(=O)c1cc2c(cc1Cl)NC(=O)CO2)NCc1ccccc1Cl,inactive: 10.7%
16,COc1ccc(NC(=O)CN2CCCN(Cc3ccc(Cl)cc3)S2(=O)=O)cc1Cl,inactive: 8.38%
17,COc1ccc(CNC(=O)c2cnc3sc(N4CCCCCC4)nn3c2=O)cc1,inactive: -2.13%
18,CCOC(=O)c1cnc2ccccc2c1NCCc1ccc(OC)c(OC)c1,inactive: -8.74%
19,CCN1c2ccccc2-c2nc(SCC(=O)NCc3ccc(C)cc3)ncc2S1(=O)=O,inactive: 7.46%
